# Assay results taken from publication PMC13083723 (Patterns, 2026).
# About 190 (3.5%) of roughly 5,400 compounds showed an effect of 50% or more. The list shows a part of the results. Residues, ends and D or L forms follow the SMILES beside them. *: point of attachment. PhAc = O=C(Cc1ccccc1)*
# System: Vero-E6
# Experiment: primary screen, phospholipidosis by LipidTOX staining; higher = more effect of the substance
# Conditions: 10 µM
# In short: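 Drug-induced phospholipidosis detected with HCS LipidTOX Red reagent in Vero-E6 cells. Compounds tested at 10 μM, with amiodarone (10 μM) as positive control and DMSO (0.1 v/v %) as vehicle.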
row,Compound,result_ITMP [%]
1,NC(=O)c1cccnc1,-7.2
2,O=S(=O)(NC1CCNCC1)c1cc(S(=O)(=O)c2ccccc2)ccc1C(F)(F)F,1.7
3,CC(C)C[C@H](N)C(=O)O,7.87
4,Nc1nccs1,-6.21
5,O=C1[C@@H]2[C@H]3CC[C@H](C3)[C@@H]2C(=O)N1CCCCN1CCN(c2ncccn2)CC1,-0.39
6,C[C@H](CCC(=O)NCCS(=O)(=O)O)[C@H]1CC[C@H]2[C@@H]3[C@@H](O)C[C@@H]4C[C@H](O)CC[C@]4(C)[C@H]3CC[C@]12C,3.34
7,O=C(NCc1ccc(Oc2ccccc2)cc1)c1nc(-c2cc(Br)c(O)c(Br)c2)no1,-11
8,CCCCCCCCCCCCCCCC[N+](C)(C)C,3.37
9,CS(=O)c1ccc(-c2nc(-c3ccc(F)cc3)c(-c3ccncc3)[nH]2)cc1 (stereo not shown),-1.65
10,Cc1c(Cn2c(C)nc3c(C(=O)O)cc(N4CCOCC4)cc32)cccc1C(F)(F)F,4.29
11,Cc1ncc(-c2csc(NC(=N)N)n2)[nH]1,-2.01
12,CC(=O)N(O)C/C=C/c1cccc(Oc2ccccc2)c1,-9.75
13,CCOc1ccccc1O[C@@H](c1ccccc1)[C@@H]1CNCCO1.CCOc1ccccc1O[C@H](c1ccccc1)[C@H]1CNCCO1,11
14,COc1cnc(-n2cnc(C)n2)c2[nH]cc(C(=O)C(=O)N3CCN(C(=O)c4ccccc4)CC3)c12,-1
15,CC(C)N(CCC(=O)c1ccc2ccccc2c1)Cc1ccccc1,0.88
16,CN1C2CCC1CC(OC(c1ccc(F)cc1)c1ccc(F)cc1)C2 (stereo not shown),61.5
17,CCOC(=O)c1ccc(C#Cc2ccc3c(c2)C(C)(C)CCS3)nc1,-1.97
18,C[C@@H]1CN(c2c(F)c(F)c3c(=O)c(C(=O)O)cn(C4CC4)c3c2F)C[C@H](C)N1,-7.82
19,C=C1CC[C@H](O)C/C1=C/C=C1\CCC[C@]2(C)[C@@H]([C@H](C)CCCC(C)(C)O)CC[C@@H]12,-0.38
20,CC(C)Cc1ccc(C(C)C(=O)O)cc1 (stereo not shown) [R4A_0001344_001 / SPE_K14965640],1.58
21,O=C1CN=C(c2cccc(Br)c2)c2oc3ccccc3c2N1,0.69
22,CC[C@]12CCCN3CCc4c(n(c5ccccc45)[C@@](O)(C(=O)OC)C1)[C@@H]32,0.7

row,Compound,result_ITMP [%]
1,O=C(N[C@H]1CN2CCC1CC2)c1ccc2c(c1)OCCO2,4.79
2,Cn1c(=O)c(F)c(Nc2ccc(I)cc2F)c2c(=O)n(C[C@@H](O)CO)cnc21,3.44
3,CCC[C@@H](NC(=O)N1C(=O)C(CC)(CC)[C@@H]1Oc1ccc(C(=O)N2CCN(C)CC2)cc1)c1ccc2c(c1)OCO2,29.8
4,NCCNc1ccc(NCCN)c2c1C(=O)c1ccncc1C2=O,-1.58
5,CNC[C@@H]1CC[C@@H](N)[C@@H](O[C@H]2[C@H](O)[C@@H](O[C@H]3OC[C@](C)(O)[C@H](NC)[C@H]3O)[C@H](N)C[C@@H]2N)O1,2.29
6,O=c1[nH]c(=O)n([C@H]2C[C@H](O)[C@@H](CO)O2)cc1/C=C/Br,-9.45
7,Cc1ccc2c(c1)Cc1c(C(=O)NN3CCCCC3)nn(-c3ccc(Cl)cc3Cl)c1-2,7.07
8,COc1ccc(-c2cc3c(C)nc(N)nc3n([C@H]3CC[C@H](OCCO)CC3)c2=O)cn1,14.3
9,NCC(=O)N1C[C@H](NC(=O)c2ccccc2)C[C@H]1C(=O)O,0.51
10,O=C(CCN1CCN(C(=O)OCc2cc(Cl)cc(Cl)c2)CC1)c1ccc2[nH]c(=O)oc2c1,4.78
11,CN1CCc2cc3c(cc2[C@H]1[C@@H]1OC(=O)c2c1ccc1c2OCO1)OCO3,-1.82
12,O=S(=O)(NCCCCCCc1ccccc1)c1cccc2c(Cl)cccc12,-7.16
13,O=C(Nc1ccc(-c2ccncc2)cc1)N[C@H](CO)c1ccccc1,7.28
14,O=C1C(Cl)=C(NCCN2CCOCC2)C(=O)c2ncccc21,8.37
15,COc1ccc(-c2oc3c(CC=C(C)C)c(O)cc(O)c3c(=O)c2O)cc1,0.17
16,Cc1nc2ccccc2c(-c2ccc3c4c(ccnc24)CCO3)c1[C@H](OC(C)(C)C)C(=O)O,-3.54
17,Clc1ccc(-c2nc3sccn3c2/C=N/OCc2ccc(Cl)c(Cl)c2)cc1,-2.29
18,CCN1CCC[C@H]1CNC(=O)c1cc(S(N)(=O)=O)ccc1OC,-2.06
19,Nc1ccc(S(N)(=O)=O)cc1,-4.23
20,COc1cc2ncnc(Nc3ccc(Oc4ccccc4)cc3)c2cc1OC,-0.42
21,CCCCCCCCCCCC(=O)O,2.9
22,CC1CCN(CCCC(=O)c2ccc(F)cc2)CC1,-2.94

row,Compound,result_ITMP [%]
1,CC1=C(C(=O)OCCN(Cc2ccccc2)c2ccccc2)C(c2cccc([N+](=O)[O-])c2)C(P2(=O)OCC(C)(C)CO2)=C(C)N1 (stereo not shown),-1.99
2,C1CCC2(CC1)CCNCC2,3.06
3,N.N.[Cl][Pt][Cl],4.77
4,[N-]=[N+]=N[C@]1(CO)O[C@@H](n2ccc(N)nc2=O)[C@@H](O)[C@@H]1O,-1.12
5,CS(=O)(=O)c1ccc(Oc2cc(F)cc(C#N)c2)c2c1[C@H](O)C(F)(F)C2,-2.29
6,CCOC(=O)CSCCC1NC(C(=O)O)CS1 (stereo not shown),-3.45
7,CC(C)CCC[C@@H](C)[C@H]1CC[C@H]2[C@@H]3CCC4=CC(=NO)CC[C@]4(C)[C@H]3CC[C@]12C,-0.61
8,CCCNS(=O)(=O)Nc1ncnc(OCCOc2ncc(Br)cn2)c1-c1ccc(Br)cc1,-14.1
9,CC(CCc1ccc(O)cc1)NCCc1ccc(O)c(O)c1 (stereo not shown),-2.76
10,N[C@@H](CCC(=O)N[C@@H](CSN=O)C(=O)NCC(=O)O)C(=O)O,3.47
11,CC(=O)c1ccc(NS(C)(=O)=O)c(Oc2ccc(F)cc2F)c1,-1.81
12,CC(O)(C(=O)Nc1ccc(S(=O)(=O)c2ccccc2)cc1)C(F)(F)F (stereo not shown),-0.72
13,CCOCc1cc(OC)c(-c2ccc(C[C@H](NC(=O)c3c(F)cccc3F)C(=O)O)cc2)c(OC)c1,-0.72
14,CCCCCNCC(N)=O,-5.73
15,CCN1CCCC1CNC(=O)c1cc(S(N)(=O)=O)ccc1OC (stereo not shown),-0.35
16,COC(=O)CC[C@@H]1N=C(c2ccccn2)c2cc(Br)ccc2-n2c(C)cnc21,-1.29
17,COc1ccc(-c2ccc3cc(C(=O)O)ccc3c2)cc1C12CC3CC(CC(C3)C1)C2,-3.41
18,Cc1[nH]c(/C=C2\C(=O)Nc3cc(-c4ccccc4)ccc32)c(C)c1CCC(=O)O,-0.9
19,COc1cc2c(NC3CCN(CC4CCCCC4)CC3)nc(N3CCCN(C(C)C)CC3)nc2cc1OCCCN1CCCCC1,-1.28
20,Nc1cc(C(F)(F)F)c(-c2nc(N3CCOCC3)nc(N3CCOCC3)n2)cn1,0.11
21,O=C(NCCO)c1cc(C(=O)NCCO)cc(C(=O)NCCO)c1,-1.92
22,CCCC(C)C1(CC)C(=O)NC(=O)NC1=O (stereo not shown),-1.95

row,Compound,result_ITMP [%]
1,O=C(O)c1cccnc1,-2.51
2,Nc1nccc2c1ncn2[C@@H]1C=C(CO)[C@@H](O)[C@H]1O,-12.7
3,CCCCCCCNS(=O)(=O)c1cccc2c(Cl)cccc12,3.17
4,CCCCc1oc2ccccc2c1C(=O)c1cc(I)c(OCCN(CC)CC)c(I)c1,55.1
5,Cc1cnc(C(=O)N[C@H]2CCCCC/C=C\[C@@H]3C[C@@]3(C(=O)NS(=O)(=O)C3CC3)NC(=O)[C@@H]3C[C@@H](Oc4nc5ccccc5c5ccccc45)CN3C2=O)cn1,0.45
6,COc1cc2c(cc1OC)CN(C(=O)[C@@H](NCc1ccncc1)C(C)(C)C)CC2,6.96
7,CN1CCN(c2ccc3nc(-c4c(N)c5c(F)cccc5[nH]c4=O)[nH]c3c2)CC1,19.1
8,O=c1[nH]c(=O)n([C@H]2C[C@H](O)[C@@H](CO)O2)cc1I,-5.58
9,Cc1cccc(N(C)C(=S)Oc2ccc3ccccc3c2)c1,-4.15
10,C=CCNC1=C2C[C@@H](C)C[C@H](OC)[C@H](O)[C@@H](C)/C=C(\C)[C@H](OC(N)=O)[C@@H](OC)/C=C\C=C(/C)C(=O)NC(=CC1=O)C2=O,-3.29
11,C[C@@H]1CC[C@@]2(OC1)O[C@H]1C[C@H]3[C@@H]4CC=C5C[C@@H](O)CC[C@]5(C)[C@H]4CC[C@]3(C)[C@H]1[C@@H]2C,8.94
12,N[C@@H](COP(=O)(O)O)C(=O)O,-6.25
13,Cc1ccc(S(=O)(=O)OCC(=O)Nc2ccc(C(=O)O)c(O)c2)cc1,-0.81
14,C[C@H]1C[C@H]2[C@@H]3CCC4=CC(=O)C=C[C@]4(C)[C@H]3C(=O)C[C@]2(C)[C@@]1(O)C(=O)CO,-6.07
15,Clc1ccc(C23CNCC2C3)cc1Cl (stereo not shown),0.19
16,CCOC(=O)CNC(=O)[C@@H]1CCCN1C(=O)Cc1ccccc1 (PhAc-Pro-Gly-OEt),-1.74
17,O=C(O)CCCN1CCC(O[C@@H](c2ccc(Cl)cc2)c2ccccn2)CC1,2.29
18,O=C(Nc1ncc(SCCN2CCCC2)s1)[C@]1(c2ccc(S(=O)(=O)C3CC3)cc2)C[C@H]1C1CCCCC1,55.8
19,CO/N=C(/C(=O)N[C@@H]1C(=O)N2C(C(=O)O)=C(CSC(=O)c3ccco3)CS[C@H]12)c1csc(N)n1,-6.25
20,CN(C(=O)CCCOc1ccc2[nH]c(=O)ccc2c1)C1CCCCC1,-1.64
21,NNC(=O)c1ccncc1,-5.81
22,CC(C)[C@]12O[C@H]1[C@@H]1O[C@]13[C@]1(O[C@H]1C[C@H]1C4=C(CC[C@@]13C)C(=O)OC4)[C@@H]2O,17.6
